Measurements published in the supplement of paper PMC10369915.
Some of the results follow. No stated cut-off is given here; in the data, active = 3.2 or more and inactive = the rest. Most of these values are background signal.

target: SHP2 C-SH2 domain E139D; assay: enrichment score (SH2-bound / input frequency) (ratio); bacterial display of known human phosphotyrosine sites (pTyr-Var adds point mutants) read by sequencing; higher = stronger binding; tyrosines were phosphorylated by kinases first; settings: peptide library: pTyr-Var
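Further: displayed peptides selected on beads carrying the immobilized SH2 domain, with library peptides lacking any tyrosine serving as negative controls.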

Enrichment score, inactive:
SRASFYRKGGC [ALK_Y1283_Y1278S_YF] 0.333
IYLADCRIMEG [ALOX12B_Y318_Y318C] 0.713
FLTLHYDAKPQ [ANG_Y38_Q36L] 2.22
KTKIGYSPLHQ [ANK1_Y735_L733I] 0.75
MARDISRASYY [ALK_Y1278_Y1278S] 0.862
LIQRNYKLAAQ [ALPK2_Y1975] 0.679
SRDTCYLVLAV [AMH_Y195_R194C] 1.31
RLCQDYDTIGP [ANK1_Y1073] 1.21
MAQDIYRASFF [ALK_Y1278_R1275Q_YF] 1.21
MALDIYRASYY [ALK_Y1278_R1275L] 1.94
TIMTDYNPNYC [ALK_Y1092] 0.595
IFLADYRIMEG [ALOX12B_Y318_YF] 2.35
MAQDIYRASYY [ALK_Y1278_R1275Q] 0.802
ACQGKYTPSSQ [ALDOA_Y343_G347S] 0.742
KIIRRYVSSEG [ANK2_Y3907] 0.424
AFGEVYEGQES [ALK_Y1131_V1135E] 0.729
FRASFYRKGGC [ALK_Y1283_YF] 0.337
KTKLGYSPLHQ [ANK1_Y735] 1.14

target: SHP2 C-SH2 domain wild-type; assay: as above; settings: peptide library: pTyr-Var

Enrichment score, inactive:
SRASFYRKGGC [ALK_Y1283_Y1278S_YF] 0.25
IYLADCRIMEG [ALOX12B_Y318_Y318C] 0.796
FLTLHYDAKPQ [ANG_Y38_Q36L] 1.78
KTKIGYSPLHQ [ANK1_Y735_L733I] 0.803
MARDISRASYY [ALK_Y1278_Y1278S] 0.868
LIQRNYKLAAQ [ALPK2_Y1975] 0.527
SRDTCYLVLAV [AMH_Y195_R194C] 1.32
RLCQDYDTIGP [ANK1_Y1073] 1.31
MAQDIYRASFF [ALK_Y1278_R1275Q_YF] 0.848
MALDIYRASYY [ALK_Y1278_R1275L] 1.73
TIMTDYNPNYC [ALK_Y1092] 0.661
IFLADYRIMEG [ALOX12B_Y318_YF] 2.06
MAQDIYRASYY [ALK_Y1278_R1275Q] 0.76
ACQGKYTPSSQ [ALDOA_Y343_G347S] 0.649
KIIRRYVSSEG [ANK2_Y3907] 0.411
AFGEVYEGQES [ALK_Y1131_V1135E] 0.569
FRASFYRKGGC [ALK_Y1283_YF] 0.274
KTKLGYSPLHQ [ANK1_Y735] 1.09

target: SHP2 N-SH2 domain L43F; assay: as above; settings: peptide library: pTyr-Var

Enrichment score, inactive:
SRASFYRKGGC [ALK_Y1283_Y1278S_YF] 0.217
IYLADCRIMEG [ALOX12B_Y318_Y318C] 0.924
FLTLHYDAKPQ [ANG_Y38_Q36L] 1.71
KTKIGYSPLHQ [ANK1_Y735_L733I] 0.774
MARDISRASYY [ALK_Y1278_Y1278S] 0.813
LIQRNYKLAAQ [ALPK2_Y1975] 0.62
SRDTCYLVLAV [AMH_Y195_R194C] 1.06
RLCQDYDTIGP [ANK1_Y1073] 1.18
MAQDIYRASFF [ALK_Y1278_R1275Q_YF] 0.993
MALDIYRASYY [ALK_Y1278_R1275L] 1.77
TIMTDYNPNYC [ALK_Y1092] 0.597
IFLADYRIMEG [ALOX12B_Y318_YF] 2.7
MAQDIYRASYY [ALK_Y1278_R1275Q] 0.926
ACQGKYTPSSQ [ALDOA_Y343_G347S] 0.725
KIIRRYVSSEG [ANK2_Y3907] 0.273
AFGEVYEGQES [ALK_Y1131_V1135E] 0.647
FRASFYRKGGC [ALK_Y1283_YF] 0.238
KTKLGYSPLHQ [ANK1_Y735] 1.14

target: SHP2 N-SH2 domain T42A; assay: as above; settings: peptide library: pTyr-Var

Enrichment score, inactive:
SRASFYRKGGC [ALK_Y1283_Y1278S_YF] 0.297
IYLADCRIMEG [ALOX12B_Y318_Y318C] 0.678
FLTLHYDAKPQ [ANG_Y38_Q36L] 1.86
KTKIGYSPLHQ [ANK1_Y735_L733I] 0.569
MARDISRASYY [ALK_Y1278_Y1278S] 0.722
LIQRNYKLAAQ [ALPK2_Y1975] 0.438
SRDTCYLVLAV [AMH_Y195_R194C] 1.29
RLCQDYDTIGP [ANK1_Y1073] 1.03
MAQDIYRASFF [ALK_Y1278_R1275Q_YF] 0.871
MALDIYRASYY [ALK_Y1278_R1275L] 1.65
TIMTDYNPNYC [ALK_Y1092] 0.858
IFLADYRIMEG [ALOX12B_Y318_YF] 2.24
MAQDIYRASYY [ALK_Y1278_R1275Q] 0.567
ACQGKYTPSSQ [ALDOA_Y343_G347S] 0.67
KIIRRYVSSEG [ANK2_Y3907] 0.351
AFGEVYEGQES [ALK_Y1131_V1135E] 0.493
FRASFYRKGGC [ALK_Y1283_YF] 0.303
KTKLGYSPLHQ [ANK1_Y735] 0.809

target: SHP2 N-SH2 domain T52S; assay: as above; settings: peptide library: pTyr-Var

Enrichment score, inactive:
SRASFYRKGGC [ALK_Y1283_Y1278S_YF] 0.261
IYLADCRIMEG [ALOX12B_Y318_Y318C] 0.957
FLTLHYDAKPQ [ANG_Y38_Q36L] 2.16
KTKIGYSPLHQ [ANK1_Y735_L733I] 0.792
MARDISRASYY [ALK_Y1278_Y1278S] 0.558
LIQRNYKLAAQ [ALPK2_Y1975] 0.545
SRDTCYLVLAV [AMH_Y195_R194C] 0.985
RLCQDYDTIGP [ANK1_Y1073] 0.671
MAQDIYRASFF [ALK_Y1278_R1275Q_YF] 0.985
MALDIYRASYY [ALK_Y1278_R1275L] 1.71
TIMTDYNPNYC [ALK_Y1092] 0.657
IFLADYRIMEG [ALOX12B_Y318_YF] 1.79
MAQDIYRASYY [ALK_Y1278_R1275Q] 0.751
ACQGKYTPSSQ [ALDOA_Y343_G347S] 0.726
KIIRRYVSSEG [ANK2_Y3907] 0.39
AFGEVYEGQES [ALK_Y1131_V1135E] 0.771
FRASFYRKGGC [ALK_Y1283_YF] 0.295
KTKLGYSPLHQ [ANK1_Y735] 1.08

target: SHP2 N-SH2 domain wild-type; assay: as above; settings: peptide library: pTyr-Var

Enrichment score, inactive:
SRASFYRKGGC [ALK_Y1283_Y1278S_YF] 0.23
IYLADCRIMEG [ALOX12B_Y318_Y318C] 1.3
FLTLHYDAKPQ [ANG_Y38_Q36L] 1.56
KTKIGYSPLHQ [ANK1_Y735_L733I] 1.01
MARDISRASYY [ALK_Y1278_Y1278S] 0.631
LIQRNYKLAAQ [ALPK2_Y1975] 0.475
SRDTCYLVLAV [AMH_Y195_R194C] 1.62
RLCQDYDTIGP [ANK1_Y1073] 1.61
MAQDIYRASFF [ALK_Y1278_R1275Q_YF] 1.09
MALDIYRASYY [ALK_Y1278_R1275L] 1.73
TIMTDYNPNYC [ALK_Y1092] 0.882
IFLADYRIMEG [ALOX12B_Y318_YF] 2.15
MAQDIYRASYY [ALK_Y1278_R1275Q] 0.86
ACQGKYTPSSQ [ALDOA_Y343_G347S] 0.646
KIIRRYVSSEG [ANK2_Y3907] 0.383
AFGEVYEGQES [ALK_Y1131_V1135E] 0.668
FRASFYRKGGC [ALK_Y1283_YF] 0.209
KTKLGYSPLHQ [ANK1_Y735] 1.19
